In all, about 16,000 sequences were measured (“Z-score”: median about -0.37, highest 2% from about 3.1 on). The list shows a part of the results.
Tested on: RBM10 RRM1-ZnF-RRM2 (GST-tagged construct)
Test: RNAcompete 7-mer binding Z-score; higher = stronger binding preference
Outline: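 In 1 ml Hepes pH 7.8 buffer with KCl, NaCl, glycerol, DTT, BSA and glutathione Sepharose beads, GST-tagged RBM10 constructs (20 pmol) were incubated for 30 min at 4°C with 1.5 nmol of a designed pool of 241 399 RNAs up to 41 nt. Four 2-min washes at 4°C followed, and bound RNA was detected by microarray hybridisation. Heptamer motif enrichment was expressed as a one-sided Z-score across probes containing each motif.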

First: CAGGGAG
Second: ACGGAGU
The “RNAcompete 7-mer binding Z-score” value of the first is higher: 3.08 for the first, 1.32 for the second.

First: UGAUUCC
Second: CGAUAAU
The “RNAcompete 7-mer binding Z-score” value of the first is lower: -0.668 for the first, -0.256 for the second.

First: CGGAAGC
Second: CCUGAGA
The “RNAcompete 7-mer binding Z-score” value of the first is higher: 0.202 for the first, -0.737 for the second.

Compared with UUGUGUC, UGAGGUC is higher in “RNAcompete 7-mer binding Z-score” value: -0.624 for the first, 0.796 for the second.

Going from CAUCUGC to GUCAAUG, the “RNAcompete 7-mer binding Z-score” value rises from -0.821 to 0.294.

Going from UCGGGCU to GGUUUCC, the “RNAcompete 7-mer binding Z-score” value rises from -0.0853 to 0.253.

Compared with UACUCCG, CGUCUUA is higher in “RNAcompete 7-mer binding Z-score” value: -0.788 for the first, -0.697 for the second.

Compared with CAAUACA, GGCCCUU is lower in “RNAcompete 7-mer binding Z-score” value: -0.0998 for the first, -0.93 for the second.

Compared with AGCGUGC, AGUAUAU is lower in “RNAcompete 7-mer binding Z-score” value: -0.0561 for the first, -0.351 for the second.

Compared with UAUGCAA, AUUGUAA is lower in “RNAcompete 7-mer binding Z-score” value: -0.0525 for the first, -0.384 for the second.

Compared with GGAUGCU, ACACAUA is lower in “RNAcompete 7-mer binding Z-score” value: 0.403 for the first, -0.377 for the second.

Compared with CCAAGCA, GCUUGGC is higher in “RNAcompete 7-mer binding Z-score” value: -0.402 for the first, -0.191 for the second.

Compared with GCUGUAU, UAUCCGA is lower in “RNAcompete 7-mer binding Z-score” value: -0.468 for the first, -0.628 for the second.

Going from CGGCUCC to CGGGACA, the “RNAcompete 7-mer binding Z-score” value rises from -0.453 to 1.35.

Going from CUUAUAA to AGUGACU, the “RNAcompete 7-mer binding Z-score” value rises from -0.825 to -0.0598.

Going from UAUGCUU to GAACGCG, the “RNAcompete 7-mer binding Z-score” value rises from -0.803 to 0.472.

Compared with CGAUAAG, UAGCAAA is lower in “RNAcompete 7-mer binding Z-score” value: 0.538 for the first, -0.103 for the second.

Compared with AUUAUGU, CCGGUAU is higher in “RNAcompete 7-mer binding Z-score” value: -0.402 for the first, -0.169 for the second.

Going from GUCGUAG to CUCGCUG, the “RNAcompete 7-mer binding Z-score” value falls from 0.257 to -0.766.

Compared with UUCACUG, GAUUUGC is higher in “RNAcompete 7-mer binding Z-score” value: -0.599 for the first, -0.475 for the second.

Compared with UUUUUAG, GCGUCUG is higher in “RNAcompete 7-mer binding Z-score” value: -0.584 for the first, -0.326 for the second.

First: AGACUCG
Second: ACUCAUC
The “RNAcompete 7-mer binding Z-score” value of the first is higher: -0.774 for the first, -0.777 for the second.

First: AUUGGCU
Second: CAAACCU
The “RNAcompete 7-mer binding Z-score” value of the first is higher: -0.275 for the first, -0.763 for the second.

First: ACCGUUG
Second: UUAGGCC
The “RNAcompete 7-mer binding Z-score” value of the first is higher: -0.318 for the first, -0.471 for the second.

First: UGGGCGU
Second: GAUGGCA
The “RNAcompete 7-mer binding Z-score” value of the first is higher: 2.41 for the first, 1.5 for the second.

First: GGAUAAA
Second: AAUUGCA
The “RNAcompete 7-mer binding Z-score” value of the first is higher: 1.45 for the first, -0.282 for the second.

Compared with UUAGGGG, CGGCGCA is lower in “RNAcompete 7-mer binding Z-score” value: 2.07 for the first, 0.304 for the second.

Compared with ACCUAUU, GAUGUGA is higher in “RNAcompete 7-mer binding Z-score” value: -0.883 for the first, 0.727 for the second.

Going from GGGUGGU to UCGGCAG, the “RNAcompete 7-mer binding Z-score” value falls from 4.19 to 0.024.

First: CCCCCCC
Second: UAACAGU
The “RNAcompete 7-mer binding Z-score” value of the first is higher: 0.0859 for the first, 0.0349 for the second.

Going from AUUAGUA to UACCGUG, the “RNAcompete 7-mer binding Z-score” value rises from -0.0306 to -0.00877.

First: CGGUCUG
Second: GUGUACC
The “RNAcompete 7-mer binding Z-score” value of the first is lower: -0.318 for the first, -0.173 for the second.

First: UACACGC
Second: GUGUAUG
The “RNAcompete 7-mer binding Z-score” value of the first is lower: -0.57 for the first, 0.964 for the second.

Compared with UUGGGUG, CAAGUCG is lower in “RNAcompete 7-mer binding Z-score” value: 3.43 for the first, -0.431 for the second.

Going from CGAGGGC to CGAAUUU, the “RNAcompete 7-mer binding Z-score” value falls from 1.41 to -0.814.

First: UUAACAC
Second: ACCAUCG
The “RNAcompete 7-mer binding Z-score” value of the first is higher: -0.49 for the first, -0.65 for the second.

Compared with GCAUCUG, CAAAACU is lower in “RNAcompete 7-mer binding Z-score” value: -0.562 for the first, -0.617 for the second.

First: GAUUCAG
Second: CAGCGCG
The “RNAcompete 7-mer binding Z-score” value of the first is higher: 0.312 for the first, -0.3 for the second.

Compared with AAUUCGU, UAAUCAU is higher in “RNAcompete 7-mer binding Z-score” value: -0.468 for the first, -0.424 for the second.

Going from GGAAGUC to CCAGUGU, the “RNAcompete 7-mer binding Z-score” value falls from 0.822 to -0.602.

First: UCCCCAU
Second: GUCCACU
The “RNAcompete 7-mer binding Z-score” value of the first is lower: -0.73 for the first, -0.653 for the second.

First: AAGCCGU
Second: UAAGGCU
The “RNAcompete 7-mer binding Z-score” value of the first is lower: -0.632 for the first, 0.224 for the second.

Compared with GCCCCUG, UGGCUCG is higher in “RNAcompete 7-mer binding Z-score” value: -0.406 for the first, -0.18 for the second.

Compared with AGUAGUU, ACCACAU is lower in “RNAcompete 7-mer binding Z-score” value: 0.0677 for the first, -0.573 for the second.

First: GGAGGAU
Second: GCCCAUC
The “RNAcompete 7-mer binding Z-score” value of the first is higher: 2.27 for the first, -0.865 for the second.

First: UCUUUCG
Second: CCGUAGU
The “RNAcompete 7-mer binding Z-score” value of the first is lower: -0.766 for the first, -0.468 for the second.

Going from UACGUUA to CCCAACU, the “RNAcompete 7-mer binding Z-score” value falls from -0.486 to -0.861.

Compared with UACGGGA, CAUCGAC is lower in “RNAcompete 7-mer binding Z-score” value: 1.9 for the first, -0.723 for the second.

First: GCUUCUG
Second: CUGGGUA
The “RNAcompete 7-mer binding Z-score” value of the first is lower: -0.81 for the first, 1.78 for the second.

First: CGGCCUU
Second: CAUACUA
The “RNAcompete 7-mer binding Z-score” value of the first is higher: -0.683 for the first, -0.726 for the second.

Compared with AGCUUCC, UUGCGUU is higher in “RNAcompete 7-mer binding Z-score” value: -0.719 for the first, -0.562 for the second.

Going from GCUCAUC to UAACACA, the “RNAcompete 7-mer binding Z-score” value rises from -0.737 to -0.00877.

Going from AUCGUCA to CGCUAGC, the “RNAcompete 7-mer binding Z-score” value falls from -0.548 to -0.675.

First: GGGCCUA
Second: GCGGCGC
The “RNAcompete 7-mer binding Z-score” value of the first is lower: 0.246 for the first, 0.734 for the second.

Going from GGCCCAG to AACGAGG, the “RNAcompete 7-mer binding Z-score” value rises from -0.26 to 2.14.

Going from GUGACAA to GGUUGAG, the “RNAcompete 7-mer binding Z-score” value rises from 0.796 to 2.85.

Compared with GGCAGAA, GACACAU is lower in “RNAcompete 7-mer binding Z-score” value: 1.41 for the first, -0.413 for the second.

Going from GUAAACC to GACGUCU, the “RNAcompete 7-mer binding Z-score” value falls from -0.0197 to -0.672.

Compared with UGACGGU, UACUACU is lower in “RNAcompete 7-mer binding Z-score” value: 0.993 for the first, -0.821 for the second.

Compared with CUAGAAG, GAUGGCU is higher in “RNAcompete 7-mer binding Z-score” value: 0.0386 for the first, 0.476 for the second.

Compared with UUCGUGG, UCGUUUA is lower in “RNAcompete 7-mer binding Z-score” value: 0.814 for the first, -0.526 for the second.

Compared with CUCUUAC, CGGAGAG is higher in “RNAcompete 7-mer binding Z-score” value: -0.999 for the first, 0.975 for the second.

Going from CCCUCAC to UCUCGCU, the “RNAcompete 7-mer binding Z-score” value falls from -0.748 to -0.919.

First: CAACGAU
Second: GCCUACC
The “RNAcompete 7-mer binding Z-score” value of the first is higher: -0.136 for the first, -0.726 for the second.

Going from UGACAUC to UUAAACG, the “RNAcompete 7-mer binding Z-score” value rises from -0.464 to -0.442.

Going from ACGAAAU to AAACCAA, the “RNAcompete 7-mer binding Z-score” value falls from -0.191 to -0.326.

Compared with GAUUCUA, UCACUUU is lower in “RNAcompete 7-mer binding Z-score” value: -0.65 for the first, -0.923 for the second.

First: AAUUCCA
Second: GAAGAUG
The “RNAcompete 7-mer binding Z-score” value of the first is lower: -0.508 for the first, 1.38 for the second.

Compared with ACUGUCU, UCCUAGU is higher in “RNAcompete 7-mer binding Z-score” value: -0.945 for the first, -0.704 for the second.

First: UCAGACA
Second: GCGGGCG
The “RNAcompete 7-mer binding Z-score” value of the first is lower: -0.398 for the first, 2.17 for the second.

Going from CAGUAAC to UAUCAAC, the “RNAcompete 7-mer binding Z-score” value falls from -0.078 to -0.504.

Compared with GGGCGUU, UUUGCCC is lower in “RNAcompete 7-mer binding Z-score” value: 0.949 for the first, -0.755 for the second.

Compared with AUAGUAU, AGCUACA is lower in “RNAcompete 7-mer binding Z-score” value: -0.0343 for the first, -0.103 for the second.

First: CAAAAUU
Second: UGGUCGU
The “RNAcompete 7-mer binding Z-score” value of the first is lower: -0.49 for the first, 0.337 for the second.

Going from CCACCUC to UCACUCA, the “RNAcompete 7-mer binding Z-score” value falls from -0.69 to -0.89.

Compared with GUGCGGU, GCACGAC is lower in “RNAcompete 7-mer binding Z-score” value: 1.41 for the first, 0.0058 for the second.

Compared with CUUGGGC, GUCACCC is lower in “RNAcompete 7-mer binding Z-score” value: 0.385 for the first, -0.613 for the second.

First: GCUGAAA
Second: AGCGUAU
The “RNAcompete 7-mer binding Z-score” value of the first is lower: -0.187 for the first, 0.0349 for the second.

Going from UUAAAUU to AAGGUAA, the “RNAcompete 7-mer binding Z-score” value rises from -0.664 to 3.65.

Going from UCUGAAC to ACGUCUG, the “RNAcompete 7-mer binding Z-score” value rises from -0.839 to -0.635.

Compared with UCUCGGU, GAUACGU is higher in “RNAcompete 7-mer binding Z-score” value: -0.449 for the first, 0.192 for the second.

First: CCUAAGU
Second: AGUCACA
The “RNAcompete 7-mer binding Z-score” value of the first is lower: -0.584 for the first, -0.0889 for the second.

First: AAAGCCA
Second: UCAUGCG
The “RNAcompete 7-mer binding Z-score” value of the first is lower: -0.337 for the first, -0.289 for the second.

First: UCGAUCG
Second: CGACGAA
The “RNAcompete 7-mer binding Z-score” value of the first is lower: -0.551 for the first, -0.504 for the second.

Compared with GUGGUGU, UCUUGCG is lower in “RNAcompete 7-mer binding Z-score” value: 1.58 for the first, -0.664 for the second.

Going from GUCACAA to GACACCA, the “RNAcompete 7-mer binding Z-score” value falls from -0.209 to -0.289.

Going from UUUCUUU to UAGCAGC, the “RNAcompete 7-mer binding Z-score” value rises from -0.697 to -0.256.

Going from UAGUGGG to GGGCAGU, the “RNAcompete 7-mer binding Z-score” value falls from 3 to 2.31.

First: UGCAAAU
Second: CGCGUUC
The “RNAcompete 7-mer binding Z-score” value of the first is higher: -0.38 for the first, -0.613 for the second.

Compared with GCGCUCG, CCCAUCA is lower in “RNAcompete 7-mer binding Z-score” value: -0.329 for the first, -0.803 for the second.

First: UGUAAGU
Second: CUGCAGA
The “RNAcompete 7-mer binding Z-score” value of the first is higher: -0.144 for the first, -0.449 for the second.

In the case of UCUCUGA, the “RNAcompete 7-mer binding Z-score” value is reported as -0.781.

— the supplement of paper PMC5499739
